Screen size: about 310,000 compounds; about 14,000 (4.5%) showed an effect of 50% or more. The effect is printed as a negative number. This is one part of the list.
Target: human ether-à-go-go-related gene (hERG) potassium channel (human, UniProt Q12809)
Experiment: primary screen, population patch clamp on CHO cells stably expressing hERG
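Note: peak tail current of the secondary pulse compared with the same well before compound.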

human ether-à-go-go-related gene (hERG) potassium channel, sequence (Q12809 whole entry, looked up): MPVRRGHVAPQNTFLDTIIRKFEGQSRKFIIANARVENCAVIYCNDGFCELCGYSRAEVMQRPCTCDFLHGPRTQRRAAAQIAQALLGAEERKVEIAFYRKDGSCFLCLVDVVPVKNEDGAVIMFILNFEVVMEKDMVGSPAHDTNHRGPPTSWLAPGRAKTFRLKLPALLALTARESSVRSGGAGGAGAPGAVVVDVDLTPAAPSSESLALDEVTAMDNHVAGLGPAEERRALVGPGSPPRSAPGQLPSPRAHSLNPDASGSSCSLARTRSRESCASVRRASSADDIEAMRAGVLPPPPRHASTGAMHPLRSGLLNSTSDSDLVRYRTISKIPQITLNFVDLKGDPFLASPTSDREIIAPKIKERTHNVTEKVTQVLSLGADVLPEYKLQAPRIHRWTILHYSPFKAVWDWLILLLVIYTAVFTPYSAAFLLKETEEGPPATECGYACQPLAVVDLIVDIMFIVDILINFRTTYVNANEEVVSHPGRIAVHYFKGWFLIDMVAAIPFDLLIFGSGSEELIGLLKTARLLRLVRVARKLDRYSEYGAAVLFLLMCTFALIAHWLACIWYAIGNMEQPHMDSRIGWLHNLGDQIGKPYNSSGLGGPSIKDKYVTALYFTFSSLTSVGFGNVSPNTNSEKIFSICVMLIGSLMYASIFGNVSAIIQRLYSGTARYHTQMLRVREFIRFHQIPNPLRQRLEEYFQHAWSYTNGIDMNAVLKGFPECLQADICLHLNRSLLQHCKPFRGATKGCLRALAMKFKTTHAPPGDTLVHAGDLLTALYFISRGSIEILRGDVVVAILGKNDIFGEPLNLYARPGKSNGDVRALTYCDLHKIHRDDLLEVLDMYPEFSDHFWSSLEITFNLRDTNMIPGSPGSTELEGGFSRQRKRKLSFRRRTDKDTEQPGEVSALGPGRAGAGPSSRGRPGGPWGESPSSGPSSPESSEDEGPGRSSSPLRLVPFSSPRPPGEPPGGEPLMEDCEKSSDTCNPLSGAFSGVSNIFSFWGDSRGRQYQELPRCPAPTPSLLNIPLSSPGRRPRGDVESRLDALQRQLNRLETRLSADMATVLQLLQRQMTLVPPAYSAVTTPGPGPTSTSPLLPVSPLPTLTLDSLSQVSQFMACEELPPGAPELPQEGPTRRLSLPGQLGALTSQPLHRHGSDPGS

First: COc1cccc(-c2nc(Oc3cc(C)cc(C)c3)c3ccccc3n2)c1O
Second: CCn1c(C)nc2cc(C(=O)NNC(=S)Nc3ccccc3OC)ccc21
The “hERG current change (%, negative = inhibition) at 10uM” value of the first is higher: 12.1% for the first, -13.2% for the second.

Compared with `NC(=O)c1ccsc1NC(=O)COC(=O)C1=NNC(=O)CC1`, `COc1cccc(/C=C2/SC(=S)N(CC(=O)NNC(=O)c3ccccc3O)C2=O)c1` is higher in “hERG current change (%, negative = inhibition) at 10uM” value: 8.28% for the first, 21.9% for the second.

First: Cc1ccc(SCC(=O)NCc2ccncc2)cc1
Second: Cc1ccc(CNS(=O)(=O)CCNC(=O)c2ccc3c(c2)OCO3)cc1
The “hERG current change (%, negative = inhibition) at 10uM” value of the first is higher: -6.77% for the first, -17% for the second.

First: COc1ccc(NC(=O)c2ccc(COCC(F)(F)C(F)F)cc2)cc1
Second: COc1ccc(OCc2nnc(NC(=O)Nc3ccc(F)cc3)s2)cc1
The “hERG current change (%, negative = inhibition) at 10uM” value of the first is higher: 4.32% for the first, -5.55% for the second.

First: COc1ccc(Nc2nc(N3CCCCC3)c3ccccc3n2)cc1
Second: COc1ccccc1NC(=O)Cn1c(CN2CCCCC2)nc2ccccc2c1=O
The “hERG current change (%, negative = inhibition) at 10uM” value of the first is higher: -32.9% for the first, -43.7% for the second.

First: O=C(OCc1ccc(Cl)c(Cl)c1)c1ccc[nH]1
Second: CN(CC(=O)NCc1ccccn1)S(=O)(=O)c1cc(Cl)ccc1Cl
The “hERG current change (%, negative = inhibition) at 10uM” value of the first is lower: -19% for the first, -6.98% for the second.

First: CC1(C)SC2C(NC(=O)COc3ccccc3)C(=O)N2C1C(=O)[O-].[K+] (stereo not shown)
Second: COc1cccc(C(=O)Nc2cc(C)ccc2NC(=O)COc2ccccc2)c1
The “hERG current change (%, negative = inhibition) at 10uM” value of the first is lower: -4.23% for the first, 13.4% for the second.

Compared with `CC(Oc1ccc(Cl)cc1Cl)C(=O)Nn1cnnc1` (stereo not shown), `COc1ccc(C(=O)NCC(=O)OCc2ccc(Cl)cc2Cl)cc1OC` is lower in “hERG current change (%, negative = inhibition) at 10uM” value: 21.4% for the first, -6.66% for the second.

Compared with `Cc1noc(N)c1C1(O)C(=O)Nc2c(Cl)cc(Cl)cc21` (stereo not shown), `Cc1ccc(-n2nc(C(=O)O)c(C)c(C#N)c2=O)cc1Cl` is higher in “hERG current change (%, negative = inhibition) at 10uM” value: 0.32% for the first, 16.7% for the second.

Compared with `Cc1ccc(C)c(N2CCN(C(=O)C3CCCN(S(=O)(=O)c4c(C)noc4C)C3)CC2)c1` (stereo not shown), `CCOC(=O)N1CCC(NC(=O)C2CCCN(S(=O)(=O)c3cccc4nsnc34)C2)CC1` (stereo not shown) is lower in “hERG current change (%, negative = inhibition) at 10uM” value: -11.1% for the first, -17.1% for the second.

First: COc1ccc(CCNC(=O)c2nnn(-c3ccc4c(c3)OCCO4)c2N)cc1OC
Second: COc1ccc(CN(CCCN2CCOCC2)C(=O)Nc2ccccc2)cc1OC
The “hERG current change (%, negative = inhibition) at 10uM” value of the first is higher: -2.71% for the first, -10.9% for the second.

Going from `Cc1ccc(NC2=C(Cl)C(=O)OC2OC(=O)c2ccco2)cc1` (stereo not shown) to `CCOc1ccc(NC(=O)c2ccccc2OCC(=O)c2ccc(C)cc2)cc1`, the “hERG current change (%, negative = inhibition) at 10uM” value rises from -42.2% to 7.69%.

Compared with `O=C1/C(=C/c2ccco2)SC(=S)N1CC1CCCO1` (stereo not shown), `CCOc1ccc(C(=O)N(CC(=O)Nc2cccc(C)c2C)CC2CCCO2)cc1OC` (stereo not shown) is lower in “hERG current change (%, negative = inhibition) at 10uM” value: 2.63% for the first, -2.11% for the second.

Compared with `Cn1ncc([N+](=O)[O-])c1C(=O)N1CCOCC1`, `CC(C)(C)c1ccc(C(=O)NC(=S)N2CCOCC2)cc1` is higher in “hERG current change (%, negative = inhibition) at 10uM” value: -11.8% for the first, 13.1% for the second.

First: COc1c(C(=O)Nc2nnc(C3CC3)s2)csc1Cl
Second: COc1ccc(C(=O)Nc2nc(C)c(C(=O)N(C)C)s2)cc1OC
The “hERG current change (%, negative = inhibition) at 10uM” value of the first is lower: 6.86% for the first, 15.9% for the second.

First: COc1cccc(C2=NN(C(=O)c3ccco3)C(O)(C(F)(F)F)C2)c1 (stereo not shown)
Second: COc1ccc(C(=O)N2CCN(C(=O)c3ccco3)CC2)cc1
The “hERG current change (%, negative = inhibition) at 10uM” value of the first is higher: -1.17% for the first, -5.7% for the second.

Compared with `CCCCC(CC)C(=O)Nc1cc(C(=O)NCCC)ccc1N1CCC2(CC1)CC(c1ccccc1)=NO2` (stereo not shown), `O=C(Nc1ccccc1N1CCOCC1)c1ccc(Cl)c(S(=O)(=O)NCc2ccco2)c1` is higher in “hERG current change (%, negative = inhibition) at 10uM” value: -64.6% for the first, -51.8% for the second.

Going from `O=C(O)c1ccc2c(c1)C1C=CCC1C(c1ccncc1)N2` (stereo not shown) to `O=C(Nc1ccnn1C1CCN(Cc2ccc(C#CCCO)cc2)CC1)c1cccc(F)c1`, the “hERG current change (%, negative = inhibition) at 10uM” value falls from -0.0764% to -77.3%.

Going from `COc1cc(/C=N/Nc2ccc(C(=O)O)cc2)cc(OC)c1OC` to `COc1cc(/C=N/NC(=O)CCNC(=O)c2ccccc2Cl)ccc1O`, the “hERG current change (%, negative = inhibition) at 10uM” value rises from 10.5% to 16.3%.

Compared with `COc1ccccc1C1C(C(=O)c2cc3ccccc3o2)=C(O)C(=O)N1CCN1CCOCC1` (stereo not shown), `CCN1C(=O)C(CC(=O)Nc2ccc(OC)cc2)N(CCCN2CCN(c3ccc(F)cc3)CC2)C1=S` (stereo not shown) is lower in “hERG current change (%, negative = inhibition) at 10uM” value: 22.9% for the first, -37.6% for the second.

Going from `O=C(CCC(=O)n1ncc2ccccc21)N1CCCCC1` to `CCN1CCN(C(=O)C2(NC(=O)Nc3ccccc3Cl)CCCCC2)CC1`, the “hERG current change (%, negative = inhibition) at 10uM” value falls from 5.74% to -12.4%.

Compared with `CCCCN(CC(=O)NC1CC1)S(=O)(=O)c1ccc(OCC)cc1`, `CCOC(=O)COc1ccc(S(=O)(=O)N2CCN(c3ccccc3F)CC2)cc1` is higher in “hERG current change (%, negative = inhibition) at 10uM” value: -22.1% for the first, -7.1% for the second.

Going from `O=[N+]([O-])c1ccc(Sc2ccccc2Cl)nc1` to `O=Cc1ccc(Sc2nnc(-c3ccccc3)o2)c([N+](=O)[O-])c1`, the “hERG current change (%, negative = inhibition) at 10uM” value rises from 1.63% to 10%.

Compared with `Cc1ccccc1C(=O)Nc1cccc(C#N)c1`, `COc1ccc(S(=O)(=O)Nc2ccccc2Cl)cc1NC(C)=O` is higher in “hERG current change (%, negative = inhibition) at 10uM” value: -5% for the first, 8.78% for the second.

Compared with `CCC(C)(C(=O)NC1CCCC1)N(Cc1cccs1)C(=O)c1ccc2c(c1)OCO2` (stereo not shown), `O=C(/C=C/c1ccc2c(c1)OCO2)NCc1ccco1` is higher in “hERG current change (%, negative = inhibition) at 10uM” value: -13.7% for the first, 2.13% for the second.

Compared with `O=C1CC(N2CCN(c3ccccc3Cl)CC2)C(=O)N1c1ccccc1` (stereo not shown), `CCc1ccc(-c2cc(C(=O)NN3CCN(C)CC3)c3ccccc3n2)cc1` is lower in “hERG current change (%, negative = inhibition) at 10uM” value: 3.14% for the first, -38.3% for the second.

First: COCCCNC(=S)NCCCNc1nc2cc3c(cc2cc1C#N)OCO3
Second: CCCSc1nc(NCc2ccco2)c2c3c(sc2n1)COC(C)(CC)C3 (stereo not shown)
The “hERG current change (%, negative = inhibition) at 10uM” value of the first is lower: -4% for the first, 6.65% for the second.

Going from `CCc1nn2c(=O)cc(COc3cccc(NC(=O)c4ccco4)c3)nc2s1` to `COc1ccc2c(CC(=O)OCC(=O)c3ccc(F)cc3)coc2c1`, the “hERG current change (%, negative = inhibition) at 10uM” value rises from 6.17% to 6.5%.

Compared with `Cc1cc(C)c2c(n1)nn1c(C3CC3)cc(C(F)(F)F)nc21`, `CC(=O)N(c1nc(CCl)cs1)c1c(C)cc(C)cc1C` is lower in “hERG current change (%, negative = inhibition) at 10uM” value: 9.78% for the first, 7.84% for the second.

First: CCOC(=O)c1oc2ccccc2c1N
Second: O=c1oc(-c2cccs2)nc2ccccc12
The “hERG current change (%, negative = inhibition) at 10uM” value of the first is higher: 5.11% for the first, 4.42% for the second.

Going from `Cc1cc([N+](=O)[O-])nn1CC(=O)N/N=C/c1ccccc1O` to `Cc1ccc([N+](=O)[O-])cc1NC(=O)Cc1cccs1`, the “hERG current change (%, negative = inhibition) at 10uM” value rises from 2.6% to 18.6%.

Compared with `CCC1(C)Cc2nc3[nH]c(=S)n(-c4ccccc4)c(=O)c3cc2CO1` (stereo not shown), `Cc1ccc2c(c1)CC1(CN2C)C(=O)NC(=O)N(CCc2ccccc2)C1=O` (stereo not shown) is lower in “hERG current change (%, negative = inhibition) at 10uM” value: 17.6% for the first, -15.2% for the second.

Going from `O=C(c1cccs1)n1nc(-c2ccccc2)nc1NCc1ccc(F)cc1` to `N#CCCn1nc(-c2ccccc2)cc1Nc1ccccc1NC(=O)C(F)(F)F`, the “hERG current change (%, negative = inhibition) at 10uM” value rises from -33.6% to -16.8%.

First: Cc1nc2ncnn2c(C)c1CCC(=O)NC(C)CCc1ccco1 (stereo not shown)
Second: CCc1nn(CC(=O)NCCCN2CCN(CC)CC2)c(=O)c2cc3occc3n12
The “hERG current change (%, negative = inhibition) at 10uM” value of the first is lower: -8.57% for the first, 16.7% for the second.

Going from `COc1ccc(-c2csc(N(CCCN(C)C)C(=O)c3cccs3)n2)cc1.Cl` to `CCOCCOC(=O)COc1ccc2c(=O)c(Oc3ccc(OC)cc3)coc2c1`, the “hERG current change (%, negative = inhibition) at 10uM” value rises from -73.9% to 15.3%.

First: O=C(O)CSc1cccc2cccnc12
Second: O/N=C/c1ccc2ccccc2c1
The “hERG current change (%, negative = inhibition) at 10uM” value of the first is higher: 16.3% for the first, 3.05% for the second.

Going from `CCC(C)Nc1nc2c(c(=O)n(C)c(=O)n2C)n1Cc1ccc(F)cc1` (stereo not shown) to `COc1cccc(CN2CCN(Cc3nc(C(C)C)cs3)CC2CCO)c1` (stereo not shown), the “hERG current change (%, negative = inhibition) at 10uM” value falls from -7.7% to -73.7%.

Compared with `CCn1c(SCc2nnc(-c3ccccc3)o2)nnc1-c1ccc(S(=O)(=O)N2CCCC2)cc1`, `Cc1cc(=O)[nH]c2c(C)cc(S(=O)(=O)N3CCCCC3)cc12` is higher in “hERG current change (%, negative = inhibition) at 10uM” value: -34.6% for the first, 4.69% for the second.

First: CCc1cc2c(=O)n(N)c(CCC(=O)O)nc2s1
Second: Cc1nonc1NC(=O)OCCN1CCOC1=O
The “hERG current change (%, negative = inhibition) at 10uM” value of the first is lower: -8.56% for the first, 15.3% for the second.

Going from `Fc1ccc(C[n+]2c(-c3ccccc3)cc(-c3ccccc3)cc2-c2ccccc2)cc1.[O-][Cl+3]([O-])([O-])[O-]` to `COc1ccc(O[C@H]2C=C[C@@H](c3ccccc3)O[C@@H]2COC(=O)CC/C(C)=N/O[C@H](C)c2cn([C@@H]3COC[C@H]3O)nn2)cc1`, the “hERG current change (%, negative = inhibition) at 10uM” value rises from -71.5% to -15.5%.

First: CCCCCSc1nnc(-c2cc(Br)ccc2N)c(=O)[nH]1
Second: Cc1ccc(S(=O)(=O)N2CCOCC2)cc1NC(=O)CSc1nnc(NC2CC2)s1
The “hERG current change (%, negative = inhibition) at 10uM” value of the first is higher: 4.09% for the first, -6.46% for the second.

Going from `CN(c1cccc(Cl)c1)S(=O)(=O)c1cccc(C(=O)NC2=NCCS2)c1` to `CC(=O)Nc1ccc(N2CC(C)(C)C2=O)cc1`, the “hERG current change (%, negative = inhibition) at 10uM” value falls from 6.79% to 5.07%.

Going from `Cc1ccc(NCN2C(=O)C3C4C=CC(C4)C3C2=O)cc1` (stereo not shown) to `COC1CCCCC1Nc1cc(C)cc(C)c1` (stereo not shown), the “hERG current change (%, negative = inhibition) at 10uM” value falls from 8.22% to 5.98%.

Going from `CS(=O)(=O)N1CCN(c2ccc([N+](=O)[O-])cc2C(F)(F)F)CC1` to `CCc1occc(=O)c1Oc1cc(NN2CCCCC2)c([N+](=O)[O-])cc1[N+](=O)[O-]`, the “hERG current change (%, negative = inhibition) at 10uM” value falls from -40.7% to -42.2%.
